Data published in the supplement of paper PMC6206098.
± gives the uncertainty stated by the source. The sequences are guide strands of siRNAs; only the seed at positions 2 to 7 varies.

Assays:
HeyA8 = test: cell viability relative to lipid-only control; higher = less toxic; conditions: concentration: 10 nM; 96 h; Homo sapiens
M565 = test: as above; conditions: concentration: 10 nM; 96 h; Mus musculus
H460 = test: as above; conditions: concentration: 10 nM; 96 h; Homo sapiens
3LL = test: cell viability relative to siNT1 control; HeyA8 human ovarian and H460 human lung cancer; M565 mouse liver and 3LL mouse lung cancer; siNT1 is a non-toxic control siRNA; higher = less toxic; conditions: concentration: 10 nM; 96 h; Mus musculus
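Wherever cell viability relative to lipid-only control is given: reverse lipid transfection in 384-well plates, in triplicate, of duplexes on a non-toxic 19mer backbone with passenger strand 2′-O-methylated at positions 1 and 2, luminescence viability read-out.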
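Wherever cell viability relative to siNT1 control is given: Luminescence-based viability of cells reverse transfected in 384-well plates with lipid-complexed siRNAs built on a non-toxic 19mer backbone whose passenger strand carries 2′-O-methyl groups at positions 1 and 2, triplicates.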

UAAAUAUACAUGUAAACCAAA gave a cell viability (HeyA8) of 101 ± 3.1%, a cell viability (M565) of 94.8 ± 17% and a cell viability (H460) of 74.5 ± 8.2%. For the same sequence, the cell viability (3LL) was 103 ± 5.4%.

Sequence UUCUGUAACAUGUAAACCAAA has a cell viability (HeyA8) of 90 ± 12%, a cell viability (M565) of 52.9 ± 5.3% and a cell viability (H460) of 66.8 ± 12%. For the same sequence, the cell viability (3LL) was 76.2 ± 0.66%.

Work on UAAGGCCACAUGUAAACCAAA yielded a cell viability (HeyA8) of 24.3 ± 0.66%, a cell viability (M565) of 5.36 ± 1.4% and a cell viability (H460) of 53.6 ± 5.5%. It also gave a cell viability (3LL) of 4.18 ± 1.2%.

In the case of UACCCCAACAUGUAAACCAAA, the cell viability (HeyA8) is reported as 35.2 ± 6.9%, the cell viability (M565) is reported as 59.3 ± 2.6% and the cell viability (H460) is reported as 53.9 ± 2.5%. The cell viability (3LL) was 43.8 ± 8.4%.

UGAAAUUACAUGUAAACCAAA showed a cell viability (HeyA8) of 73.7 ± 4.4%, a cell viability (M565) of 60.7 ± 12% and a cell viability (H460) of 83 ± 13%. For the same sequence, the cell viability (3LL) was 94.7 ± 19%.

In the case of UCGUGGUACAUGUAAACCAAA, the cell viability (HeyA8) is reported as 39.7 ± 1.5%, the cell viability (M565) is reported as 40.5 ± 9.6% and the cell viability (H460) is reported as 27 ± 6%. For the same sequence, the cell viability (3LL) was 41.5 ± 8.9%.

Work on UGGAGUUACAUGUAAACCAAA yielded a cell viability (HeyA8) of 36 ± 10%, a cell viability (M565) of 33.7 ± 2.9% and a cell viability (H460) of 51.2 ± 8.9%. The cell viability (3LL) was 77.3 ± 3.2%.

For UUGAAAAACAUGUAAACCAAA, the cell viability (HeyA8) was 91.9 ± 9.1%, the cell viability (M565) was 84.8 ± 9.6% and the cell viability (H460) was 69.6 ± 14%. It also gave a cell viability (3LL) of 94.9 ± 7.6%.

UAGCUCGACAUGUAAACCAAA gave a cell viability (HeyA8) of 79.3 ± 11%, a cell viability (M565) of 57.8 ± 6.8% and a cell viability (H460) of 88.5 ± 10%. For the same sequence, the cell viability (3LL) was 69.2 ± 5.4%.

In the case of UUUAAUAACAUGUAAACCAAA, the cell viability (HeyA8) is reported as 96.3 ± 9.7%, the cell viability (M565) is reported as 81.6 ± 8.3% and the cell viability (H460) is reported as 86.2 ± 4.5%. The cell viability (3LL) was 95.4 ± 3.1%.

Sequence UCUUCGCACAUGUAAACCAAA has a cell viability (HeyA8) of 57 ± 5%, a cell viability (M565) of 49.5 ± 13% and a cell viability (H460) of 63 ± 2.6%. It also gave a cell viability (3LL) of 87.6 ± 15%.

For UGAUACGACAUGUAAACCAAA, the cell viability (HeyA8) was 84.4 ± 6.4%, the cell viability (M565) was 58.7 ± 7% and the cell viability (H460) was 51.3 ± 2.8%. The cell viability (3LL) was 87.4 ± 19%.

Sequence UUUCCCGACAUGUAAACCAAA has a cell viability (HeyA8) of 81.2 ± 8.6%, a cell viability (M565) of 69.1 ± 11% and a cell viability (H460) of 63.6 ± 3.7%. It also gave a cell viability (3LL) of 75 ± 3.1%.

UACCUAGACAUGUAAACCAAA gave a cell viability (HeyA8) of 25.6 ± 4%, a cell viability (M565) of 68.2 ± 17% and a cell viability (H460) of 43.5 ± 4.2%. For the same sequence, the cell viability (3LL) was 76.9 ± 4.8%.

In the case of UAGUGAUACAUGUAAACCAAA, the cell viability (HeyA8) is reported as 23.2 ± 1.2%, the cell viability (M565) is reported as 39.2 ± 4.6% and the cell viability (H460) is reported as 22.4 ± 0.58%. For the same sequence, the cell viability (3LL) was 26.9 ± 1.4%.

UGCCGGGACAUGUAAACCAAA was tested, and the cell viability (HeyA8) was 35.9 ± 5.7%, the cell viability (M565) was 17 ± 6% and the cell viability (H460) was 57.9 ± 5.8%. For the same sequence, the cell viability (3LL) was 60.1 ± 10%.

UGCGUCAACAUGUAAACCAAA was tested, and the cell viability (HeyA8) was 71.9 ± 1.1%, the cell viability (M565) was 52.7 ± 1.4% and the cell viability (H460) was 64.2 ± 1.9%. The cell viability (3LL) was 72.5 ± 6.7%.

With UAUUAAUACAUGUAAACCAAA the cell viability (HeyA8) was 92.5 ± 11%, the cell viability (M565) was 90.7 ± 8.2% and the cell viability (H460) was 106 ± 19%. It also gave a cell viability (3LL) of 113 ± 20%.

With UCCUGAGACAUGUAAACCAAA the cell viability (HeyA8) was 88.9 ± 2.9%, the cell viability (M565) was 72.7 ± 7% and the cell viability (H460) was 82.9 ± 22%. The cell viability (3LL) was 95.9 ± 16%.

Sequence UGUGUGUACAUGUAAACCAAA has a cell viability (HeyA8) of 30.3 ± 2%, a cell viability (M565) of 17.2 ± 3.9% and a cell viability (H460) of 41.6 ± 5.5%. The cell viability (3LL) was 16.3 ± 7.1%.

For UAGCAUUACAUGUAAACCAAA, the cell viability (HeyA8) was 65.9 ± 1.6%, the cell viability (M565) was 64.2 ± 16% and the cell viability (H460) was 83.3 ± 6.9%. It also gave a cell viability (3LL) of 84.1 ± 11%.

UUAUCUCACAUGUAAACCAAA showed a cell viability (HeyA8) of 77.6 ± 4.8%, a cell viability (M565) of 56.9 ± 13% and a cell viability (H460) of 82.7 ± 6.6%. It also gave a cell viability (3LL) of 33.1 ± 3.5%.

UAGUCCGACAUGUAAACCAAA gave a cell viability (HeyA8) of 52.7 ± 3.6%, a cell viability (M565) of 52.3 ± 2.6% and a cell viability (H460) of 80.2 ± 10%. It also gave a cell viability (3LL) of 70.4 ± 1.6%.

UCACCAUACAUGUAAACCAAA was tested, and the cell viability (HeyA8) was 81.7 ± 7%, the cell viability (M565) was 49.6 ± 10% and the cell viability (H460) was 45 ± 3.1%. For the same sequence, the cell viability (3LL) was 86.1 ± 15%.

For UAUUCGUACAUGUAAACCAAA, the cell viability (HeyA8) was 98.6 ± 15%, the cell viability (M565) was 110 ± 12% and the cell viability (H460) was 62.2 ± 2.3%. For the same sequence, the cell viability (3LL) was 88.5 ± 21%.

UUGUAGUACAUGUAAACCAAA gave a cell viability (HeyA8) of 5.4 ± 0.33%, a cell viability (M565) of 18.8 ± 3.5% and a cell viability (H460) of 23.9 ± 3.1%. The cell viability (3LL) was 47.3 ± 1%.

With UGUAUGAACAUGUAAACCAAA the cell viability (HeyA8) was 61.7 ± 12%, the cell viability (M565) was 77.9 ± 11% and the cell viability (H460) was 70.3 ± 11%. The cell viability (3LL) was 76.3 ± 7.3%.

Sequence UGAAAGGACAUGUAAACCAAA has a cell viability (HeyA8) of 29.7 ± 3.4%, a cell viability (M565) of 35.5 ± 2.3% and a cell viability (H460) of 62.5 ± 7%. The cell viability (3LL) was 43.1 ± 12%.

UUAGCAUACAUGUAAACCAAA was tested, and the cell viability (HeyA8) was 73.2 ± 1.1%, the cell viability (M565) was 29.7 ± 2.6% and the cell viability (H460) was 59.7 ± 4.7%. It also gave a cell viability (3LL) of 42.3 ± 5.9%.

With UACAGUUACAUGUAAACCAAA the cell viability (HeyA8) was 69.8 ± 5.9%, the cell viability (M565) was 49.1 ± 2.9% and the cell viability (H460) was 87.5 ± 7.7%. It also gave a cell viability (3LL) of 74.6 ± 5.7%.

Sequence UAUGAGCACAUGUAAACCAAA has a cell viability (HeyA8) of 75.5 ± 5.7%, a cell viability (M565) of 21.7 ± 4.1% and a cell viability (H460) of 38.7 ± 9.3%. For the same sequence, the cell viability (3LL) was 21.6 ± 1%.

Sequence UUGGGGUACAUGUAAACCAAA has a cell viability (HeyA8) of 22.2 ± 0.81%, a cell viability (M565) of 28.8 ± 8.7% and a cell viability (H460) of 43.4 ± 1.7%. For the same sequence, the cell viability (3LL) was 17.4 ± 9.4%.

UUACUAUACAUGUAAACCAAA gave a cell viability (HeyA8) of 79 ± 3.4%, a cell viability (M565) of 70.6 ± 5.3% and a cell viability (H460) of 70.2 ± 0.83%. It also gave a cell viability (3LL) of 85.8 ± 5%.

In the case of UUUAGUGACAUGUAAACCAAA, the cell viability (HeyA8) is reported as 94.7 ± 4.8%, the cell viability (M565) is reported as 66.4 ± 8.8% and the cell viability (H460) is reported as 75.4 ± 7.7%. It also gave a cell viability (3LL) of 86.5 ± 3.2%.

UUACCAAACAUGUAAACCAAA showed a cell viability (HeyA8) of 88.6 ± 0.52%, a cell viability (M565) of 85.4 ± 12% and a cell viability (H460) of 67 ± 4.5%. The cell viability (3LL) was 70.6 ± 6.9%.

Work on UAUAACUACAUGUAAACCAAA yielded a cell viability (HeyA8) of 80.9 ± 11%, a cell viability (M565) of 87.6 ± 5.9% and a cell viability (H460) of 78.3 ± 21%. It also gave a cell viability (3LL) of 93.6 ± 15%.

Work on UGGUUACACAUGUAAACCAAA yielded a cell viability (HeyA8) of 77 ± 4.1%, a cell viability (M565) of 77.9 ± 7.2% and a cell viability (H460) of 70.4 ± 16%. For the same sequence, the cell viability (3LL) was 95.5 ± 13%.

With UACGAAGACAUGUAAACCAAA the cell viability (HeyA8) was 89.4 ± 9%, the cell viability (M565) was 67.3 ± 7.1% and the cell viability (H460) was 80.5 ± 12%. For the same sequence, the cell viability (3LL) was 83.1 ± 8.6%.

With UAACAGCACAUGUAAACCAAA the cell viability (HeyA8) was 28.2 ± 1.6%, the cell viability (M565) was 46.4 ± 4.2% and the cell viability (H460) was 37.8 ± 9.9%. It also gave a cell viability (3LL) of 56.1 ± 2.4%.

UUAUCGCACAUGUAAACCAAA gave a cell viability (HeyA8) of 57.6 ± 8%, a cell viability (M565) of 34.4 ± 17% and a cell viability (H460) of 38.5 ± 6%. For the same sequence, the cell viability (3LL) was 9.82 ± 3.7%.

UUUGCCUACAUGUAAACCAAA was tested, and the cell viability (HeyA8) was 72.7 ± 5%, the cell viability (M565) was 30 ± 4.9% and the cell viability (H460) was 55.1 ± 5.6%. The cell viability (3LL) was 23.4 ± 1.8%.

For UUAGGCCACAUGUAAACCAAA, the cell viability (HeyA8) was 28.2 ± 6%, the cell viability (M565) was 6.43 ± 1.3% and the cell viability (H460) was 46.2 ± 3.9%. The cell viability (3LL) was 12.3 ± 9.3%.

In the case of UAAACAAACAUGUAAACCAAA, the cell viability (HeyA8) is reported as 101 ± 4%, the cell viability (M565) is reported as 92.7 ± 3.1% and the cell viability (H460) is reported as 110 ± 6.7%. It also gave a cell viability (3LL) of 97.4 ± 3.1%.

UACAACUACAUGUAAACCAAA showed a cell viability (HeyA8) of 36.4 ± 6.7%, a cell viability (M565) of 51.9 ± 8.9% and a cell viability (H460) of 66.1 ± 6.9%. The cell viability (3LL) was 11.7 ± 4.4%.

UCAAGCAACAUGUAAACCAAA showed a cell viability (HeyA8) of 82.4 ± 1.3%, a cell viability (M565) of 42.1 ± 6.6% and a cell viability (H460) of 72.3 ± 16%. It also gave a cell viability (3LL) of 90.9 ± 19%.

With UCAUUAAACAUGUAAACCAAA the cell viability (HeyA8) was 73.8 ± 5%, the cell viability (M565) was 68.1 ± 6.7% and the cell viability (H460) was 57.8 ± 9.7%. The cell viability (3LL) was 89.3 ± 11%.

Work on UGCACUCACAUGUAAACCAAA yielded a cell viability (HeyA8) of 40.6 ± 5.6%, a cell viability (M565) of 22.6 ± 13% and a cell viability (H460) of 60.7 ± 5.6%. The cell viability (3LL) was 29.5 ± 11%.

In the case of UUGGCAUACAUGUAAACCAAA, the cell viability (HeyA8) is reported as 71.6 ± 5%, the cell viability (M565) is reported as 42.2 ± 7.9% and the cell viability (H460) is reported as 85.6 ± 6.4%. For the same sequence, the cell viability (3LL) was 44.1 ± 0.98%.
